The values below come from PubChem BioAssay AID1240 (Sanford-Burnham Center for Chemical Genomics, 2008).

Among all 50,000 compounds or so, about 800 (1.6%) showed an effect of 50% or more. This is one part of the list.

The test concerns the target Bcl-2-like protein 10 (Homo sapiens) (UniProt Q9HD36). Put plainly: Phenotype converters, Bcl-B/TR3 peptide binding displacement, primary biochemical FP (AID 1240).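 Note: 0% = Bcl-B with tracer peptide and DMSO and 100% = tracer peptide lacking Bcl-B.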 To be noted: GST-Bcl-B / FITC-TR3 peptide fluorescence polarization; stronger effect = higher value; compound at 3.75 mg/L. (Fluorescence polarisation rises when a labelled molecule tumbles more slowly, as on binding a larger partner.)
Sequence of UniProt Q9HD36 (Q9HD36 whole entry, looked up): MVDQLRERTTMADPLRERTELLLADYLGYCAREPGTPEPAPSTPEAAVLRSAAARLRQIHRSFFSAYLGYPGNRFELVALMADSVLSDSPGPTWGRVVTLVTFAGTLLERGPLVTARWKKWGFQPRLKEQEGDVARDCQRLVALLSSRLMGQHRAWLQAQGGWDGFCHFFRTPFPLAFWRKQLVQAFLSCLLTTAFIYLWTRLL
Consider `CCc1ccc(/C=C2/SC(=S)N(CCC(=O)O)C2=O)cc1`, for which the displacement is -7.1%. In the case of `Cc1ccc(C(=O)c2ccc(Br)cc2)cc1S(=O)(=O)Nc1cccc(C(=O)O)c1` it was 9.2%. On to `Cc1ccc(CC2C(=O)N(c3ccc4ccccc4n3)C(=O)C2C)cc1` (centres undefined), for which the displacement was determined as 2.2%. In the case of `N#C/C(=C(/O)C(c1ccccc1)c1ccccc1)c1nc2ccccc2s1` it was -3.6%. In the case of `O=C(c1ccc(-c2ccccc2)cc1)N1CCN(CCN2C(=O)c3cccc4cccc(c34)C2=O)CC1` it was -9%; in that of `O=C(COc1ccc(Cl)cc1)Nc1ccc2oc(-c3ccccc3)nc2c1`, -6.4%.

On to `O=C(O)C1C2CCC(O2)C1C(=O)N1CCN(c2ccc(F)cc2)CC1` (centres undefined), for which the displacement was -9.7%. The same measure for `CCc1ccc(-c2cc(C(=O)O)c3ccccc3n2)cc1`: 6.2%; for `OCC1CCCCN1CC(O)COc1ccc(C23CC4CC(CC(C4)C2)C3)cc1` (centres undefined): -1.4%; for `CC(=O)Oc1ccc(C)cc1N1C(=O)c2ccc(C(=O)O)cc2C1=O`: 11.4%. The same measure for `O=C(COc1ccccc1Cl)Nc1ccc(NC(=O)c2ccc(Cl)cc2Cl)cc1`: -23.1%; for `Cc1cccc(C)c1NC(=O)c1cccc([N+](=O)[O-])c1`: 0.9%. In the case of `CC1CC(C)CN(C(=O)/C=C/c2ccc3c(c2)OCO3)C1` (centres undefined) it was -11%; in that of `CC1CCCN(C(=O)/C=C/c2ccccc2)C1` (centres undefined), 8.3%; in that of `O=C(Nc1ccc(I)cc1Cl)c1cccc2ccccc12`, -5.6%. Regarding `CC(=O)c1cccc(NC(=O)c2ccc(C(=O)Nc3cccc(C(C)=O)c3)cc2)c1`, the displacement was 15%. In the case of `CCN(CC)c1ccc(/C=C(/C#N)C(=O)Nc2cccc(Br)c2)o1` it was -60.8%; in that of `CCCOc1cccc(C(=O)Nc2scc(-c3ccc(F)cc3)c2C(=O)OC)c1`, -8.5%. The same measure for `O=C(CC1SC(=Nc2ccccc2)N(c2ccccc2)C1=O)Nc1ccccc1C(F)(F)F` (centres undefined): -11.6%. In the case of `COc1ccc(-n2nc3cc(C)c(NC(=O)/C=C/c4ccccc4)cc3n2)cc1` it was 4.5%; in that of `COC(=O)C1=C(C)N(C)C(C)=C(C(=O)OC)C1c1ccc(C(=O)OC)cc1`, 0.4%. Regarding `Cc1ccc(-c2nc3ncccc3o2)cc1NC(=O)c1cc([N+](=O)[O-])ccc1Cl`, the displacement was determined as 3.7%.

Take `COc1ccccc1CNC(=O)CN(c1ccc(Cl)cc1)S(C)(=O)=O`: the displacement is -1%. The same measure for `CCN(CC)C(=O)CN(c1ccc(OC)c(Cl)c1)S(=O)(=O)c1ccccc1`: 7.8%.

Turning to `CCN=C1SC(CC(=O)Nc2ccccc2C(F)(F)F)C(=O)N1CC` (centres undefined), the displacement is 5.2%. Consider `CC1(C)CC(=O)C=C(Nc2ccc3c(c2)CCC3)C1`, for which the displacement came out at 0.8%.

On to `COc1cccc(/C=N/NC(=O)CC2C(=O)NN=C2C)c1O` (centres undefined), for which the displacement is -26.2%. In the case of `O=C(O/N=C(/c1ccncc1)c1ccc([N+](=O)[O-])cc1)c1cccc(F)c1` it was -1.9%; in that of `O=C1CC(N2CCN(Cc3ccccc3)CC2)C(=O)N1c1ccc(Cl)c(Cl)c1` (centres undefined), 1.7%; in that of `Cc1ccc(C(=O)/C=C/c2ccc(-c3ccccc3[N+](=O)[O-])o2)cc1`, 14%. Turning to `COc1ccc(S(=O)(=O)N2CCN(Cc3ccccn3)CC2)cc1`, the displacement is -16.4%. Take `Oc1cccc(C=Nc2ccccc2)c1O`: the displacement is -6.7%.

As to `COC(=O)c1cc(NC(=O)c2cc(OC)cc(OC)c2)cc(C(=O)OC)c1`, the displacement was determined as 45.6%. The same measure for `NS(=O)(=O)c1ccc(CNS(=O)(=O)c2ccc(Br)cc2)cc1`: 11.4%; for `CC(=O)CC(=O)Nc1cccc(I)c1`: -4.5%.

With `COc1ccc(C2(CNC(=O)CC(c3ccccc3)c3ccccc3O)CCOCC2)cc1OC` (centres undefined), the displacement came out at 1.7%. `Clc1ccc(/C=N/Nc2cc(N3CCOCC3)nc(N3CCOCC3)n2)c(Cl)c1`: the displacement was determined as 4.4%. As for `C=CCOc1ccc(/C=N/NC(=O)CSc2ncccn2)c(O)c1`, the displacement was -17.3%. Consider `CC(C)(C)NC(=O)/C(=C\c1cccs1)NC(=O)c1ccc(C(C)(C)C)cc1`, for which the displacement was 20%. In the case of `O=C1CCCc2oc3c(Br)cc(NS(=O)(=O)c4cc(Cl)ccc4Cl)cc3c21` it was -5.3%; in that of `C=CCOc1ccc(/C=C2\SC(=S)N(c3cccc(C(F)(F)F)c3)C2=O)cc1OC`, 9.6%; in that of `O=C(O)c1ccccc1C(=O)Nc1ccc(Nc2ccc([N+](=O)[O-])cc2[N+](=O)[O-])cc1`, 8.6%.

Regarding `COc1ccc(N=Cc2cccnc2)cc1`, the displacement turned out to be 13.5%. Take `Cc1ccc(NCCC(=O)c2ccc(Cl)c(Cl)c2)cc1`: the displacement is -15.4%. The same measure for `Nc1ccc(S(=O)(=O)Nc2nccc(/C=C/c3ccc(F)cc3)n2)cc1`: -6.5%.

With `NC(=O)c1ccccc1NC(=O)COc1ccc(Cl)cc1Br`, the displacement was -4%. In the case of `CCOc1ccc(-c2cc(C(=O)Nc3ncccc3C)c3ccccc3n2)cc1` it was -2.7%; in that of `Cc1ccc(OCc2nnc(NC(=O)c3ccccc3)s2)c(C)c1`, 2.9%; in that of `Cc1ccc(N2C(=O)CC(Sc3nc4ccccc4s3)C2=O)cc1` (centres undefined), -9.4%. Turning to `CC(=O)C1C(c2ccccc2F)c2c(n[nH]c2C)CC1(C)O` (centres undefined), the displacement is -8.3%.

Consider `CCOc1ccccc1NC(=O)c1c(NC(=O)c2cccs2)sc2c1CCC(C)C2` (centres undefined), for which the displacement is -11.3%. As to `O=C(COc1ccccc1[N+](=O)[O-])Nc1ccc2oc(-c3ccc(Cl)cc3Cl)nc2c1`, the displacement came to 13.5%. For the compound `O=C1C2ON(c3ccc(Cl)cc3)C(c3cccs3)C2C(=O)N1Cc1ccccc1` (centres undefined), the displacement was -3.1%.

On to `COc1cc(OC)cc(C(=O)Nc2c[nH]c(=O)[nH]c2=O)c1`, for which the displacement is 8.4%. In the case of `CCOc1cc(C2Nc3ccc4ccccc4c3C3=C2CC(C)(C)CC3=O)ccc1O` (centres undefined) it was -10.2%; in that of `Cc1ccc(C2CC(C(F)(F)F)n3ncc(C(=O)N4CCN(c5ccc(F)cc5)CC4)c3N2)cc1` (centres undefined), -2.8%; in that of `O=C(Nc1ccccc1)Nc1nnc(SCc2ccccc2F)s1`, -3.4%.

For the compound `Nc1cc(NCCCO)ccc1[N+](=O)[O-]`, the displacement turned out to be 12.3%.

On to `CCOc1ccccc1NC(=O)COc1ccc(-c2ccc(C)cc2)cc1`, for which the displacement was -18.5%. Take `Clc1cccc(OCCCN2CCCCC2)c1Cl`: the displacement stood at 8.2%. In the case of `O=C1/C(=C\c2ccc(F)cc2)SC(=S)N1CN1CCCCC1` it was 4.5%; in that of `CCOc1ccc(NC(=O)/C(C#N)=C\c2c(C)[nH]c3ccccc23)cc1`, -1.7%. As to `Cc1ccc(OCC(=O)Nc2ccccc2CO)c(C)c1`, the displacement came to 2.5%. The same measure for `Cc1cc(-c2ccc(C(C)C)cc2)c(C#N)c(N)n1`: -39.4%; for `CC1(C)CC(=O)C2=C(C1)NC1=C(C(=O)CC(C)(C)C1)C2c1ccc2c(c1)OCO2`: 10.4%; for `O=C1NC(c2ccccc2Cl)Nc2c1sc(=S)n2-c1ccccc1` (centres undefined): 15.5%.

In the case of `CCCC1CCc2c(sc(NC(=O)C3CC3c3ccccc3)c2C(N)=O)C1` (centres undefined), the displacement is -0.6%. In the case of `COc1ccc(CC(=O)Nc2sc3c(c2C#N)CCCC3)cc1` it was -12.7%.

As to `CCC(=O)Oc1ccc2c(C(F)(F)F)cc(=O)oc2c1`, the displacement is 4.6%. In the case of `COc1ccc(S(=O)(=O)n2cnc(C)c2)cc1OC` it was 13.8%; in that of `c1ccc2nc3c(cc(N4CCOCC4)c4ccccc43)nc2c1`, 147%. As for `O=C1c2cc3ccccc3c(-c3ccccc3)c2C(=O)N1CCO`, the displacement stood at 4.9%. The same measure for `CCOC(=O)C1=C(O)/C(=C/c2ccccc2)SC1=Nc1ccc([N+](=O)[O-])cc1`: -0.9%; for `CCCOc1ccc(/C=N/NS(=O)(=O)c2ccc(OC)cc2)cc1OC`: 4.4%; for `COc1cc(N/N=C/c2ccc(N(C)C)cc2)ncn1`: -11.6%. Turning to `O=C(CCCN1C(=O)/C(=C\c2cccs2)SC1=S)Nc1ccccn1`, the displacement amounted to 13.2%. As for `COc1ccc(C(=O)/C=C/Nc2ccc(S(=O)(=O)Nc3nc(C)cc(C)n3)cc2)c(OC)c1`, the displacement is 5.4%. For the compound `COC(=O)c1ccccc1NC(=O)c1ccc(C)cc1`, the displacement amounted to 16.6%. The same measure for `CSc1nc2c(c(=O)n1C1CCCC1)C1(CCCCC1)Cc1ccccc1-2`: 2.2%; for `CCN(CC)C(=O)CCN1C(=O)/C(=C2\SC(=S)N(CCC(=O)N(CC)CC)C2=O)SC1=S`: 13.2%. In the case of `CCOc1ccc(C(=O)Nc2ccc3oc(-c4ccccc4C)nc3c2)cc1` it was -9.2%; in that of `COc1cc2ccccc2cc1C(=O)Nc1cccnc1`, 6.8%; in that of `O=C(/C=C/c1ccc(F)cc1)Nc1cccc(C(F)(F)F)c1`, 6.5%.

On to `Cc1nccn1S(=O)(=O)c1cc(Cl)ccc1Cl`, for which the displacement turned out to be 3.6%.

As for `Cc1ccc(N2CC(C(=O)Nc3ccc(Cl)cc3)CC2=O)cc1` (centres undefined), the displacement came to 9.9%. In the case of `O=C(CC12CC3CC(C1)CC(CC(=O)N1CCOCC1)(C3)C2)N1CCOCC1` it was -16.3%.

As for `CCCc1nnc(NC(=O)CNc2ccc(F)cc2)s1`, the displacement amounted to 14.1%.

As for `Cc1ccc2c(c1)NC(c1cccc([N+](=O)[O-])c1)C1=C(CC(C)(C)CC1=O)N2` (centres undefined), the displacement amounted to 7.5%. The same measure for `N#Cc1ccc(C2N(Cc3ccccc3)CCN2Cc2ccccc2)cc1`: 5.8%. In the case of `COCCN1C(=O)/C(=C\c2ccccc2[N+](=O)[O-])C(C(=O)OC)=C1C` it was 17.6%; in that of `COCCN1C(=O)C(=O)/C(=C(/O)c2ccccc2)C1c1ccc(C(C)C)cc1` (centres undefined), 34.3%; in that of `Cc1c(C(=O)Nc2ccncc2)cccc1[N+](=O)[O-]`, -2.3%. With `C=CCN1C(=O)/C(=C2\SC(=S)N(Cc3ccccc3)C2=O)c2ccccc21`, the displacement was 2.1%. Turning to `N#C/C(=C/Nc1ccc(F)cc1)c1nc(-c2ccccc2)cs1`, the displacement was -13%.

`Cc1ccc(OCCSc2nc3ccccc3[nH]2)cc1`: the displacement was determined as 5.2%.

Regarding `COc1ccc(COC(=O)NNC(=O)c2cccc(Cl)c2)cc1`, the displacement amounted to 2.2%. In the case of `Cc1ccc2c(nc3s/c(=C\c4ccc(-c5cccc(C(F)(F)F)c5)o4)c(=O)n32)c1C` it was -3.1%.

As to `Oc1c(N=Nc2ccc(I)cc2)sc2ccccc12`, the displacement was -5.1%. On to `O=C(Nc1nc2ccc(Br)cc2s1)c1cccc(Cl)c1`, for which the displacement amounted to 1.9%. Turning to `Cc1cc(NC(=O)c2cc(-c3ccccc3)nc3ccccc23)no1`, the displacement amounted to 3.8%. In the case of `COc1ccc(-c2cn3ccc(C)cc3n2)cc1Br` it was 14.2%. As to `COc1ccc(S(=O)(=O)Nc2ccc(F)cc2F)cc1`, the displacement was 5.1%. In the case of `Nc1n[nH]c(N)c1N=Nc1cccc(F)c1` it was -5.1%; in that of `O=C(NCCC(c1ccccc1)c1ccccc1)C(F)(F)F`, -1.5%.

On to `O=[N+]([O-])c1cccc(Nc2ccccc2)c1`, for which the displacement was -1.5%. The same measure for `CC(C)c1ccc(NC(=O)CC2SC(N)=NC2=O)cc1` (centres undefined): 8.7%. On to `CC(C)(C)C(=O)Nc1ccc(N2CCOCC2)cc1`, for which the displacement was found to be 5.2%.

Regarding `COc1cc(NC(=O)c2cccc(Br)c2)cc(OC)c1`, the displacement was -1.6%. In the case of `C/C(O)=C/C(N)=NC(=O)c1ccccc1` it was 18.2%.
